Structures are written as SMILES. Several values for one entry are separate records, joined by “and”; a condition that tells them apart may be missing. Equal values may be shown once.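 Where inhibition never reached the appropriate level, the endpoint shown equals the highest concentration tested. Otherwise, values were interpolated linearly from a five-concentration, 48-hour dose response in 96-well plates. Abbreviation: GI50, concentration required for 50% inhibition of growth. TGI marks complete inhibition of growth.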 Peptide text beside a SMILES is read from it.

In the assay the test system is NCI-H322M lung. Briefly: NCI anticancer screen, dose series, 48 h.
Compound `COc1cc(O)c2c(c1)C(=O)c1cc(C)cc(O)c1C2=O` registered a TGI above 100 µM.
For `Cc1ccc2c(Nc3cccc(Cl)c3F)ncc(NC(=O)c3csc4c(N)ncnc34)c2c1`, the GI50 is above 100 µM and the TGI was above 100 µM.
Consider `COc1c(Cl)cc(S(=O)O)cc1Cl`, for which the TGI is above 100 µM.
Turning to `Cc1ccc(N=Nc2c(N)nn(-c3ccccc3)c2N)cc1`, the GI50 was 5.46 µM and the TGI is above 100 µM.
Turning to `CCO/C=N/C1=C(C#N)C(c2ccc(Cl)cc2)c2c(-c3ccccc3)nn(-c3ccccc3)c2O1` (stereo not drawn), the TGI was above 100 µM.
`OCc1ccc2c(c1)CC1(C2)Cc2cc3c(cc2C1)CCC3` had a TGI above 100 µM.
Turning to `O=C1C[C@@H](Sc2ccccc2)C2(OCCO2)[C@H]2ON3CCC[C@@H]3[C@@H]12`, the TGI amounted to 3.81 µM.
On the same count and under the same terms, the same measure for `CC(C)c1c(O[Si](C(C)C)(C(C)C)C(C)C)c2c3c(ccc4c3c1OC4(C)C)C(C)CC2` (stereo not drawn): above 100 µM; for `CN1C(=O)[C@@H]2N(CSC2(C)C)C1=S`: above 100 µM.
For the compound `COc1ccc2[nH]c(=O)c(/C=C/C(=O)/C=C/c3ccc(O)c(OC)c3)cc2c1`, the GI50 was 2.44 µM and the TGI was 6.97 µM.
In turn, `O=C1Oc2ccccc2C(=O)/C1=C/N1C(=O)N/C(=C\c2cccc(O)c2)C1=O` had a TGI above 100 µM.
Consider `CC(=O)OC1CCC2(C)C(CCC3C4CC=C(C(C)=O)C4(C)OC(=O)CC32)C1` (stereo not drawn), for which the GI50 is 12.1 µM and the TGI was 24.9 µM.
`COc1ccc(OC)c(-c2nc3ccccc3c(=O)[nH]2)c1` had a TGI above 100 µM.
On the same count and under the same terms, the same measure for `COc1ccc(C2CC(c3ccc4ccccc4c3O)=NN2C(C)=O)cc1OC` (stereo not drawn): above 100 µM; for `S=C=NCc1ccccc1`: 30 µM.
Regarding `CC[C@H](C)[C@H](NC(=O)Nc1ccccc1)C(=O)N(C)[C@H](C[C@@H](OC(C)=O)c1nc(C(=O)N[C@@H](Cc2ccccc2)C[C@H](C)C(=O)OC)cs1)C(C)C`, the GI50 is 7.78 µM and the TGI was above 100 µM.
In the case of `Cc1c2cccc-2ccc2c1[nH]c1ccc(Br)cc12`, the TGI came out at 26.7 µM.
Regarding `CCN(C(=O)CCl)C(C)(C)C(SSSC(c1ccc(Cl)cc1)C(C)(C)N(CC)C(=O)CCl)c1ccc(Cl)cc1` (stereo not drawn), the GI50 was 13.2 µM and the TGI turned out to be 26.5 µM.
As for `Nc1ccc2cc3[nH]c4cc(N)ccc4c3nc2c1`, the TGI was 2.51 µM.
Still for that read-out and setting: the same measure for `O=c1cc(-c2ccccc2)oc2ccc(-c3ccc4oc(-c5ccccc5)cc(=O)c4c3)cc12`: 62.9 µM; for `COc1cc(/C=C/c2ccc(OC(C)=O)cc2)cc(OC)c1OC`: above 100 µM; for `CC[C@H](C)C1=C(O)[N@+]2([O-])Oc3ccc(-c4c(O)c(O)c(-c5ccc(OC(C)=O)cc5)c(OC(C)=O)c4OC(C)=O)cc3O[C@]2([C@@H](C)CC)C(=O)N1O`: above 50 µM.
Take `C[C@]12CCC3c4ccc(O)cc4CCC3C1Cc1ccc(O)cc12` (stereo partly drawn): the GI50 is 14.6 µM and the TGI was 30.2 µM.
On to `COc1ccc2c(c1)CC[C@@H]1[C@@H]2CC[C@]2(C)C(=O)/C(=C/c3ccncc3)C[C@@H]12`, for which the TGI was above 100 µM.
Consider `COc1cc2nc(N3CCCC3)nc(Nc3ccccc3)c2cc1OC`, for which the GI50 was 1.67 µM and the TGI was determined as 3.04 µM.
In turn, `CC(=O)Nc1ccccc1-c1cnc2ccccc2n1` registered a TGI above 100 µM.
On the same count and under the same terms, the same measure for `CC1(Br)C(=O)NC(=O)N(C2CC(N=[N+]=[N-])C(CO)O2)C1N=[N+]=[N-]` (stereo not drawn): above 100 µM.
For `CCCCCCCCCCCC[n+]1ccccc1`, the GI50 was 9.89 µM and the TGI stood at 22.2 µM.
As to `CO[C@@H]1C=C[C@@]23c4cc5c(cc4C(O)N(CC2O)C3C1)OCO5` (stereo partly drawn), the TGI amounted to 37 µM.
The same measure, in the same setting: the same measure for `CCOC(CI)O[C@@H]1C=C[C@H](OC(C)=O)C1` (stereo partly drawn): above 100 µM.
For `NNc1ccccc1Cl`, the TGI was above 100 µM.
On the same count and under the same terms, the same measure for `Nc1ccc2c(c1)CC1c3ccccc3C(C2)c2ccccc21`: above 100 µM.
For the compound `C#C[C@@]1(O)[C@@H](CO)O[C@@H](n2ccc3c(N)ncnc32)[C@@H]1O`, the GI50 is 1.28 µM and the TGI was 6.08 µM.
For the compound `COc1cc2ccnc(-c3c4ccccc4c(N)c4c(OC)c(OC)ccc34)c2cc1OC`, the TGI stood at 10.7 µM.
In the case of `O=C(O)c1nc2ccccc2nc1Nc1ccc(F)cc1`, the TGI is above 100 µM.
With `C/C1=C\C/C=C(\C)[C@H]2CC(CC/C(C)=C/CC1)[C@@](C)(CO)O2`, the GI50 was above 100 µM and the TGI is above 100 µM.
`O=C1/C(=C/c2ccccc2)N=C(c2ccccc2)N1C1Nc2cc3c(cc2S1)NC(N1C(=O)/C(=C/c2ccccc2)N=C1c1ccccc1)S3` (stereo not drawn) had a TGI above 100 µM.
Still for that read-out and setting: the same measure for `COC(=O)[C@]12CCC(C)(C)C[C@H]1C1=CC[C@@H]3[C@@]4(C)CC[C@H](OC5OC(CO)C(O)C(O)C5OC5OC(CO)C(O)C(O)C5O)C(C)(C)[C@@H]4CC[C@@]3(C)[C@]1(C)CC2` (stereo partly drawn): 18.8 µM.
Same read-out and setting: the same measure for `COC(=O)[C@@H]1C2OC(C)(C)OC2CN1C(=O)OCc1ccccc1` (stereo partly drawn): above 100 µM; for `COc1ccc2oc(=O)c(CC=C(C)C)c(O)c2c1C`: above 100 µM; for `O=C(Nc1nnc(-c2c(Cl)c(Cl)c(Cl)c(Cl)c2-c2nc3cc(C(=O)c4ccccc4)ccc3[nH]2)o1)c1ccccc1`: 46 µM.
Still for that read-out and setting: the same measure for `O=C(Nc1sccc1S(=O)(=O)c1ccc(Cl)cc1)C(F)(F)F`: above 100 µM; for `CC1=CC2=C(C(N)=O)C(=O)OC2(C)C(c2ccccc2)C1` (stereo not drawn): above 100 µM; for `CCN(CC)CCn1c2cc3c(cc2c(=O)c2cccnc21)OCO3`: above 10 µM.
Take `Cc1cccc(NC(=O)CCl)c1`: the TGI is above 10 µM.
`O=C(/C=C/c1ccccc1O)c1cccnc1` showed a TGI above 100 µM.
On to `COc1ccc(/C=C/C(=O)c2ccc3cc(OC)c(OC)cc3c2)cc1OC`, for which the GI50 is 3.86 µM and the TGI was 90.8 µM.
`Cc1nc(-c2nc(C)c(C(=O)NN(C)C)s2)sc1C(=O)NN(C)C` displayed a TGI above 100 µM.
Consider `COc1cccc(-n2ncc3c(N/N=C/c4ccc(S(C)(=O)=O)cc4)ncnc32)c1`, for which the GI50 is 12.8 µM and the TGI is above 25 µM.
`Cc1cc(S(=O)(=O)NC2=NC(c3ccccc3)c3ccccc3N2)c(S)cc1Cl` (stereo not drawn) yielded a TGI above 100 µM.
Same read-out and setting: the same measure for `CC(=O)OCC1OC(n2c(=O)n(-c3ccccc3)c(=O)c3cc(Br)cc(Br)c32)C(OC(C)=O)C(OC(C)=O)C1OC(C)=O` (stereo not drawn): above 100 µM.
`CN(C)C(=O)c1cc2cnc(Nc3ccc(-c4csc5c(=O)cc(N6CCNCC6)oc45)cc3)nc2n1C1CCCC1`: the GI50 was 1.04 µM and the TGI was 7.91 µM.
For `O=C1[C@@H]2C3SC(c4ccccc43)[C@@H]2C(=O)N1c1ccccc1`, the TGI is above 100 µM.
On the same count and under the same terms, the same measure for `Cc1cc(S(=O)(=O)n2ccnc2Oc2ccccc2)c(SSc2cc(Cl)c(C)cc2S(=O)(=O)n2ccnc2Oc2ccccc2)cc1Cl`: above 100 µM; for `O=C1Nc2cc([N+](=O)[O-])ccc2C(=O)N2CCC[C@@H]12`: above 100 µM.
In the case of `CC1(C)CC(=O)c2c(ccc(C(=O)C[C@H](N)CO)c2N)O1`, the GI50 was 1.08 µM and 0.149 µM; the TGI was 17.5 µM and 15.9 µM.
With `Nc1c(C(=O)c2cccc(CCC3(O)CCCC3)c2)cnn1-c1ccc(F)cc1`, the GI50 is above 25 µM and the TGI is above 25 µM.
Turning to `C[C@]12CC[C@H](O)C=C1CC[C@@H]1[C@@H]2CC[C@]2(C)C(=N/O)/C(=C/c3ccncc3)C[C@@H]12`, the TGI stood at 48.2 µM.
Still for that read-out and setting: the same measure for `CN(C)/C=C(\C(=O)c1ccccc1)n1nc(-c2ccccc2)cc1-c1ccccc1`: above 10 µM; for `NC(=O)Nc1cc(O)ccc1N=Nc1ccc(S(=O)(=O)Nc2ccccn2)cc1`: above 100 µM; for `N#Cc1c(N)c2c(c(-c3ccccc3)c1-c1ccccc1)C(=O)N(NC(=O)c1ccccc1)C2=O`: above 100 µM.
Still for that read-out and setting: the same measure for `CCCc1c(C(=O)OCC)[nH]c(-c2ccc(-c3[nH]c(C(=O)OCC)c(CCC)c3C(=O)OCC)o2)c1C(=O)OCC`: above 100 µM.
Regarding `CCC[CH2][Ge]([CH2]CCC)([CH2]CCC)[O]C(=O)C(O)c1ccccc1` (stereo not drawn), the GI50 was 7.65 µM and the TGI stood at 35.7 µM.
`NC(=S)NNC(=O)CCC(=O)Nc1ccc(Cl)cc1Cl`: the TGI was above 100 µM.
Same read-out and setting: the same measure for `O=C1CSC(c2ccc(Cl)cc2)N1c1ccc(-c2ccc(-n3c(-c4ccccc4)nc4ccccc4c3=O)cc2)cc1` (stereo not drawn): above 100 µM; for `CC(=O)NC(CS)C(=O)NC(CO)C(=O)NC(CO)C(=O)NC(Cc1c[nH]c2ccccc12)C(=O)N1CCCC1C(=O)NC(CO)C(=O)NC(Cc1c[nH]c2ccccc12)C(=O)NC(Cc1c[nH]cn1)C(=O)NC(CO)C(=O)NC(Cc1c[nH]c2ccccc12)C(=O)NCC(=O)NCC(=O)NC(CC(=O)O)C(=O)NC(CCC(N)=O)C(=O)NC(CCCCN)C(=O)NC(Cc1ccccc1)C(=O)NC(CCCNC(=N)N)C(=O)NC(CCCCN)C(N)=O` (stereo not drawn) (Ac-CSSWPSWHSWGGDQKFRK-NH2; configuration not given here): above 25 µM.
Same read-out and setting: the same measure for `CCOC(=O)CCC(NC(=O)c1ccc(Nc2nc3ccccc3n3cccc23)cc1)C(=O)OCC` (stereo not drawn): 23 µM; for `S=C(N/N=C(/c1ccccc1)c1ccccn1)Nc1ccc(Cl)cc1`: 14.4 µM.
The compound `Cn1c(=O)c2c(nc(N)n2C2OC(CO)C(O)C2O)n(C)c1=O` (stereo not drawn) had a TGI above 100 µM.
With `COc1cc(Br)cc2nc(-c3cccs3)oc12`, the TGI is above 100 µM.
On to `COC(=O)c1c2c(c(-c3ccccc3)c3c1-c1nc(Cl)ccc1CC3)CCc1ccc(Cl)nc1-2`, for which the TGI was above 100 µM.
Compound `Cc1ccc(C2(O)CC(c3ccc([N+](=O)[O-])o3)=NN2C(=O)COc2ccccc2Cl)cc1` (stereo not drawn) registered a TGI above 88.2 µM.
On to `COc1ccc(-c2cc(-c3cn[nH]c3-c3ccccn3)ccn2)cc1`, for which the GI50 is above 25 µM and the TGI was above 25 µM.
With `O=C(Cc1ccccc1)NNc1nc(NNC(=O)c2ccncc2)nc(Nc2ccccc2)n1`, the TGI is above 10 µM.
Still for that read-out and setting: the same measure for `Cc1cc(=O)oc2c1cc(OCC(=O)OCCN1CCCCC1)c1occ(C)c12`: above 100 µM; for `CCOC(=O)C(Cc1ccccc1)NC(=O)OC(C)(C)C` (stereo not drawn): above 100 µM; for `CCCN(CCC)c1cc2c(cc1F)c(=O)c(C(=O)O)cn2-c1ccc(N2CCN(C)CC2)cn1`: 32.6 µM.
On the same count and under the same terms, the same measure for `O=C(O)Cc1cccc2c1OC(c1ccccc1)C(C(=O)c1ccccc1)C2=O` (stereo not drawn): above 100 µM.
The same measure, in the same setting: the same measure for `COc1ccc2c(c1)CCCN1Cc3cc(OC)c(OC)cc3CC21` (stereo not drawn): above 100 µM; for `O=C(O)CCCSc1nc2ccccc2s1`: above 100 µM.

The record behind these values is PubChem BioAssay (NCI).
